# Reference: PubChem BioAssay AID1347073 (National Center for Advancing Translational Sciences (NCATS), 2019)
# Hit rate of the full screen: of about 45,000 compounds, about 200 (0.44%) were called active. Roughly 7% stayed inconclusive and do not appear here. Calls come from the whole dose curve; as a rule, active = well fitted activation curve with a large enough effect; inconclusive = small, poorly fitted or top-dose-only effect; inactive = no such curve, though single readings can be large or run the other way. Some of the results follow.
# Assay: qHTS of TDP-43 Inhibitors: NCGC Sytravon Library Screen; note: nearly all actives have a fitted effect of over 55% in size; for growth rescue (activation): 0% is about no effect
# Conditions: yeast TDP-43 toxicity rescue, BacTiter-Glo growth, 24 h; series mostly up to 46.1 µM; growth rescue (activation): at the top concentration
# Summary of the method: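 TDP-43-expressing yeast, pregrown in raffinose, seeded at OD600 0.02 in galactose medium with compound for 24 hr at 30 deg C. Growth read by BacTiter-Glo luminescence, so rescue of toxicity appears as activation.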
# Potency is the fitted concentration of half-maximal effect.
Structure (SMILES),growth rescue (activation),Potency
CCc1cccc2c(C(=O)CN3C(=O)NC4(CCCCC4)C3=O)c[nH]c12,inactive: 24.6%,
CCOC(=O)C1C(=O)NC(c2ccccc2)=NC1c1ccc(O)c(OC)c1 (configuration not stated),inactive: 4.47%,
O=C(Nc1ccc(CN2CCCCC2)cc1)Nc1ccc(Br)cc1Cl,inactive: 1.24%,
O=C(NCc1ccco1)C(c1ccncc1)N(C(=O)Cc1cccs1)c1ccccc1 (configuration not stated),inactive: -0.121%,
COc1ccc(NC(=O)CCNS(=O)(=O)c2cccc3nonc23)cc1Cl,inactive: -3.43%,
Cc1c(NC(=O)COC(=O)c2cc(-c3cccc4ccccc34)nc3ccccc23)c(=O)n(-c2ccccc2)n1C,inactive: 20%,
COc1ccc(C2Nc3ccccc3C(=O)N2NS(=O)(=O)c2ccccc2)cc1 (configuration not stated),inactive: -15%,
CC1CCN(S(=O)(=O)N2CCC(C(=O)O)CC2)CC1,inactive: -0.743%,
O=C(/C=C/c1nc2ccccc2s1)N1CCCCCC1,inactive: -8.78%,
O=C(CSc1nc(C2CC2)nc2c1cnn2-c1ccccc1)Nc1c[nH]c(=O)[nH]c1=O,inactive: -43.6%,
CN(C)c1ncc(S(=O)(=O)c2ccccc2)c(N)n1,inactive: 1.83%,
COc1cc(/C=C2\SC(=S)N(NC(=O)c3ccc(O)c(OC)c3)C2=O)ccc1O,inactive: -17.7%,
CC(=O)Nc1ccc(C(C#N)c2ccccc2)cc1 (configuration not stated),inactive: -2.22%,
Cc1ccccc1NC(=O)C(=O)NC(C)CCc1ccccc1 (configuration not stated),inactive: 8.58%,
CCCN(CC(=O)Nc1ccc(Cl)cc1Cl)C(=O)/C=C/c1cc(OC)ccc1OC,inactive: -12.5%,
O=C(OC(C(=O)Nc1ccc(Cl)cc1C(F)(F)F)c1ccccc1)c1c(Cl)cccc1Cl (configuration not stated),inactive: 1.88%,
O=C(Oc1ccc2c(-c3ccccc3)cc(=O)oc2c1)c1cccs1,inactive: 1.17%,
COc1cc(/C=N/NC(=O)c2cccnc2)ccc1OCC(=O)Nc1c(C)cc(C)cc1C,inactive: -4.51%,
Cc1ccc(C)c(C(=O)COC(=O)CN2C(=O)C3C4CCC(C4)C3C2=O)c1 (configuration not stated),inactive: 21.6%,
Cc1ccc2nc(-c3ccc(O)c(O)c3)cn2c1,inactive: -11.6%,
CC1CCCN(S(=O)(=O)c2ccc(N(C(=O)c3cnccn3)C(C(=O)NC3CCCCC3)c3cccs3)cc2)C1 (configuration not stated),inactive: -1.93%,
O=C1c2ccccc2C(=O)N1Cc1cnc(N2CCN(c3ccccc3)CC2)s1,inactive: 7.31%,
CCOC(=O)C1(Cc2ccccc2)CCN(Cc2cccc3nccnc23)CC1,inactive: -1.33%,

Structure (SMILES),growth rescue (activation),Potency
CC(=O)Oc1ccc2c(=O)c(Oc3ccccc3[N+](=O)[O-])coc2c1,inactive: -11.8%,
Cc1ccc2nc(NCc3ccccc3)c(C=NCc3ccccc3)c(=O)n2c1,inactive: 16.9%,
C=CCc1c(C)c(C#N)c2nc3ccccc3n2c1N1CCCCC1,inactive: 15.1%,
CCOc1ccc(S(=O)(=O)NCc2ccc(Cl)cc2)c2cccnc12,inactive: 11.2%,
O=C(Cn1cnc2ccccc21)OCC(=O)N1CCCCC1,inactive: -1.24%,
CS(=O)(=O)Nc1ccccc1-c1ccc2nccn2c1,inactive: -6.77%,
O=C(OCC(=O)N1CCc2ccccc21)c1ccccc1F,inactive: 9.12%,
NS(=O)(=O)c1ccc(NC(=S)NCCc2ccccc2)cc1,inactive: -10.7%,
CC12CCC(C(=O)N(c3ccccc3Cl)C1=O)C2(C)C (configuration not stated),inactive: 14.8%,
COc1ccc(C(=O)Nc2ncc3c(n2)CC(C)CC3=O)cc1 (configuration not stated),inactive: 12.3%,
CC(CNC(=O)CN1C(=O)NC2(CCCCC2C)C1=O)c1ccccc1 (configuration not stated),inactive: 16.1%,
CN1CCN(C(=O)CSc2nc(-c3ccco3)cc(C(F)(F)F)n2)CC1,inactive: 9.51%,
COc1ccc(NC(=O)COc2ccc(C(=O)NC3CCCc4ccccc43)cc2OC)cc1 (configuration not stated),inactive: 4.64%,
Cc1ccc(OC(=O)c2cccnc2)cc1,inactive: 22.1%,
c1ccc2[nH]c(NCc3ccc4c(c3)OCO4)nc2c1,inactive: 3.75%,
CCN(c1ccccc1)S(=O)(=O)c1ccc(OC)c(NC(=O)CNCCc2ccccc2)c1,inactive: 18.4%,
CCOc1ccc(C(O)(c2ccccc2)C(CN2CCCC2)c2ccccc2)cc1 (configuration not stated),inactive: -4.22%,
COc1ccccc1NCCC(=O)OCC(=O)NC1CCCCC1,inactive: 13.5%,
O=C(NCc1ccccc1)c1nc[nH]c1C(=O)NCc1ccccc1,inactive: 2.4%,
Cc1cc(C)c(C)c(S(=O)(=O)N2CCCCC2C(=O)O)c1C (configuration not stated),inactive: 10.1%,
CCn1cc(C(=O)O)c(=O)c2cc(F)c(N3CCN(C(=S)NC(=O)c4ccccc4F)CC3)cc21,inactive: 3%,
COc1ccc(Cl)cc1C(=O)OCC(=O)NC1CCCC(C)C1C (configuration not stated),,active: 17.8 µM
Cc1cc(=O)[nH]c(N/N=C/c2cc(C)n(-c3ccccc3)c2C)n1,inactive: -14.3%,

Structure (SMILES),growth rescue (activation),Potency
CCC/C=N/NC(=O)c1ccccc1O,inactive: 14.3%,
CC(NC(=O)c1ccc(N(C)C)cc1)C1CC2CCC1C2 (configuration not stated),inactive: 15.6%,
CC(=O)c1ccc(NC(=O)c2ccc(NC(=O)CCS(=O)(=O)c3cccs3)cc2)cc1,inactive: -4.46%,
CC(=O)NN=C1CCC(c2ccccc2)CC1 (configuration not stated),inactive: 24.4%,
NC(=S)NN=Cc1ccc(-c2ccc(S(=O)(=O)Nc3ncccn3)cc2)o1,inactive: 23.5%,
O=Cc1cc(N=Nc2cccc(C(=O)O)c2)ccc1O,inactive: -14.9%,
COc1cc(/C=C/C(=O)O)cc(S(=O)(=O)Nc2cc(C(F)(F)F)ccc2N2CCOCC2)c1OC,inactive: 27.3%,
COc1cc(NC(=O)CSc2nc(C3CC3)nc3ccccc23)cc(OC)c1,inactive: 15.8%,
Cc1ccc(C(=O)C2=C(O)C(=O)N(Cc3cccnc3)C2c2ccc(N(C)C)cc2)o1 (configuration not stated),inactive: -1.33%,
CCc1nc2c(OCC(=O)C(C)(C)C)cccn2c1N(C=O)Cc1ccc(OC)cc1,inactive: -2.99%,
CCC(=O)OCCNc1cc(SCCC(=O)OC)c2nonc2c1[N+](=O)[O-],inactive: -1.19%,
CCOC(=O)C1C(c2ccc(Cl)cc2)NC(=S)NC1(O)C(F)(F)F (configuration not stated),inactive: 13.2%,
COCC1CCN(C(=O)C2CCC(=O)N(C3CCCCCC3)C2)CC1 (configuration not stated),inactive: 8.25%,
O=c1cc(-c2ccccc2)c2cc3c(cc2[nH]1)OCCO3,inactive: -9.19%,
COc1ccc(/C=C2\SC(=S)N(CCCC(=O)N3CCOCC3)C2=O)cc1OC,inactive: -6.06%,
O=C(NNC(=S)Nc1ccc(F)cc1)C1[C@H]2CCCC[C@@H]12 (some centres not stated),inactive: 15.4%,
Cc1ccc(F)c(S(=O)(=O)NC(=O)C2(C)CCN2C(=O)Cc2ccccc2)c1 (configuration not stated),inactive: 3.36%,
O=C(NCc1ccc(F)c(F)c1)c1cccc2c(-c3cccnc3)coc12,,active: 10 µM
Cc1ccn(CCNC(=O)C2CCC(=O)N(Cc3ccc(Cl)cc3)C2)n1 (configuration not stated),inactive: -11.6%,
O=C(COC(=O)CNC(=O)c1ccccc1)Nc1ccc(F)c([N+](=O)[O-])c1,inactive: 0.233%,
O=C(CSc1nnc(Cc2csc(Nc3cccc(Cl)c3)n2)o1)N1CCc2ccccc21,inactive: 12.8%,
